Source: paper PMC12136788
The other results are listed elsewhere or left out.

T1: UNK ZnF1-3 (human, UniProt Q9C0B0 31-174)
T1 sequence: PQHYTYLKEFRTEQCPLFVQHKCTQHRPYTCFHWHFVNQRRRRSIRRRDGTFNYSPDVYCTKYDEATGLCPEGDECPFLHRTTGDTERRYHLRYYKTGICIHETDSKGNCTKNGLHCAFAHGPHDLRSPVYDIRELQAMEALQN

B1: 125006391_125006773_7440_CDS_ENSMUSG00000014444_ENSMUST00000067252|mouse|control|control (ssRNA)
RNA: GGGAGUUCUACAGUCCGACGAUCCUGGAUGCGCACACCAAGGUAGUCCUCUUCCUCAUCUGGCUGCAGCUGCUUCACAGGGUUGGCUUCAGGCCCAUUGGGAGCACGAAUGUACUUGGGGAAGAGAUGGGGAAUGACCACUGACAACAGAGGAUUGAGCAUCA
B2: chr10:7364202:7364203:-_ENSMUSG00000019795_ENSMUST00000163085|mus_hu|motif|central (ssRNA)
RNA: GGGAGUUCUACAGUCCGACGAUCUCCAGAUCCUACAUCAAGAGCUUUAGCUCCUUCAUGCAACUGAUCAAAUAGAAGUUCGGGCGCAUAUGCAUGCAUGUGUGGAGCACUGAUUGUUGCUUGGAAACCUAUUGAUUGUGGAGACAACAGAGGAUUGAGCAUCA
B3: 2405982_2406178_1304_CDS_ENSG00000106263_ENST00000360876|human|control|control (ssRNA)
RNA: GGGAGUUCUACAGUCCGACGAUCUUUGCCAUCAUGGCUCCACUUAAAAAUAGGCCAAUGGGCUGAGCUCUCACAGUGAAAACCCCUCUUCUUGUGCCCCGUAAGGAUGUCCCAGAUGAUUAUGGCCUGAGGGUCAUCCUGCGUCAACAGAGGAUUGAGCAUCA
B4: chr18:77696836:77696837:-_ENSMUSG00000025427_ENSMUST00000026494|mus_hu|FALSE|FALSE (ssRNA)
RNA: GGGAGUUCUACAGUCCGACGAUCCCUCAGAGGAUACCGGCUGGGUGGGCUGAGGUUGUGGGAGGAGCGAGGGAGGAGGAAAGGCAGGUUCAUGAUGGAGAGGCAGGGUUGUGGUGGGGGCGGGGGGGUGCCAAGUGUAGCAAGCAACAGAGGAUUGAGCAUCA
B5: chr6:133136146:133136147:+_ENSG00000112306_ENST00000230050|hu_hu|motif|central (ssRNA)
RNA: GGGAGUUCUACAGUCCGACGAUCACAAAGAUGGGCUUGGCGCUUGUCUAAGGCUUUGGCAGCUUCGCGAAUUCCACGUGCGGGGCCAUCGUGGAUGAGGGCAGUCUUCAGAACCUCUUGUAAAGCAGUAUUAACGUCCAUUACCAACAGAGGAUUGAGCAUCA
B6: chr17:65740002:65740003:+_ENSG00000130935_ENST00000581375|hu_hu|hu_hu_hu_mus_False|58_58 (ssRNA)
RNA: GGGAGUUCUACAGUCCGACGAUCAACAAAUCUUUCUUCCCUGGACGAACAGGAAGAUUCAUAUUAAAAAAAAUAUAUGUCUAUGAAGUUAGGUGUGGUGGCCACACCUUUACUCCCAGCACUUUGGGAGGUGGAUCUCUGAGUCAACAGAGGAUUGAGCAUCA
B7: chr14:57521792:57521793:+_ENSMUSG00000021945_ENSMUST00000022511|mus_mus|FALSE|FALSE (ssRNA)
RNA: GGGAGUUCUACAGUCCGACGAUCUGAAGGAAGAAUUUUGGGAUCGUUUCCUUGUAGUUCUUCAUUUUUUGAAGAUGUAAAUGUUAUGGGUCUUUGAUCAGCAACCAAAGGUGCAGAAGAUGGAGGAGGUUGUACAGGUUCAAUCAACAGAGGAUUGAGCAUCA
B8: chr12:112466857:112466858:-_ENSG00000111300_ENST00000261745|hu_hu|FALSE|FALSE (ssRNA)
RNA: GGGAGUUCUACAGUCCGACGAUCGUGUACCUGCCUUGGGUUCUGUGGGAGCCAAGUAGCUGAGAAAGCCUCAAAACAAACUUACUGCUGUGAAAAGGGGGUCUGUUCCCAGGCAUGGUCUCCCCUCCACUUCUUGUGGCUCAACAACAGAGGAUUGAGCAUCA
B9: chr4:25749455:25749456:-_ENSG00000091490_ENST00000264868|hu_hu|hu_hu_hu_mus_False|28_88 (ssRNA)
RNA: GGGAGUUCUACAGUCCGACGAUCGCACUAUGACCUCUAGAAAAAUCAUUCAAGGAGAAAAAUGUAAACCAAUGUACAAUGUUAUCGCCUUCCCUGUGUGUGGAGUGACAAACAAUUGGCUCCUUCUAGCUGCUGGAUUUGGGACAACAGAGGAUUGAGCAUCA
B10: chr19:15981513:15981514:-_ENSMUSG00000024640_ENSMUST00000025542|mus_mus|FALSE|FALSE (ssRNA)
RNA: GGGAGUUCUACAGUCCGACGAUCCAAAGCUUCGUCUCCUUUGGCGUUGCCAAUGCGAAAUGGGAUGUUCAUCCUGCUUCUAUUCUGGCGCUCCACUGGGCAUACAUAAAAUCCUUGAGAAUUAUCAAUGAUCUCAUAAAUCAUCAACAGAGGAUUGAGCAUCA
B11: 35834523_35834643_1342_3pUTR_ENSMUSG00000024350_ENSMUST00000025208|mouse|control|control (ssRNA)
RNA: GGGAGUUCUACAGUCCGACGAUCCCCUGACCUACUUCACAGAGGAGUUGGGUCCAAACUUUACCAUGCCUGUGACUAAGACCAACUGUUCUGCCCUGGGAGCCAGGCCUGGGGAAGGACUGGAGGGGACAAGUCUCCAAUCACCAACAGAGGAUUGAGCAUCA
B12: chr12:42180722:42180723:-_ENSMUSG00000036295_ENSMUST00000043884|mus_hu|mus_mus_mus_hu_True|88_108 (ssRNA)
RNA: GGGAGUUCUACAGUCCGACGAUCCUGUAGGAGCAGAAUCUGUGUGUCGGCAGGCAAUCUGGCUGGGAAAGUUAAAAGACCUAAAUCAUUACAAUCCACUGUAGAUGCUUCCAUAUAAAUGGAUCUGGGUGUAAACCAAGGCCUCAACAGAGGAUUGAGCAUCA
B13: chr3:133126781:133126782:-_ENSMUSG00000040943_ENSMUST00000098603|mus_hu|motif|central (ssRNA)
RNA: GGGAGUUCUACAGUCCGACGAUCUAUUUAUAACCAUCCUCAGAUCUUAUAAACCAAACAUCUCAUGAAAAUGAAAUGAAACGGGUUUUUAAAAAAGCAUAGAAAAAUGCACACAGAAGUUAUCUUAGUGUCAAACUGCAAAAGCAACAGAGGAUUGAGCAUCA
B14: chr11:50626376:50626377:-_ENSMUSG00000044807_ENSMUST00000109135|mus_mus|FALSE|FALSE (ssRNA)
RNA: GGGAGUUCUACAGUCCGACGAUCUCAGAGCUGAAGACCUCGAUUCUUAAAAGGUUAUAAAUUAAAAGUUUCUCUGAUUCUAAAAUGCAAACAGGUUCAUAGCAGGAGACUCUUGUUAACAAUGGCCUUCUACAAUACGUAAUACAACAGAGGAUUGAGCAUCA
B15: chr3:105756983:105756984:-_ENSMUSG00000000563_ENSMUST00000118209|mus_mus|motif|central (ssRNA)
RNA: GGGAGUUCUACAGUCCGACGAUCAAUAAAUUCUCCAAAAGAGGCGCCAUAUUUCUUAAUCACAUAGACUAUCAACCCGGCGGCUGAUAUGGUAGAGAAGGUCUCUGGGGUAAUCACAUAUAUUUCUUUGGAUAGAAAAUACAACAACAGAGGAUUGAGCAUCA
B16: 31371766_31374660_2016_CDS_ENSG00000196792_ENST00000355683|human|control|control (ssRNA)
RNA: GGGAGUUCUACAGUCCGACGAUCGUGUCUAUCUUCAUGAGCAGUUAUUGUAACAGGAAGUGUGGGAUGACUUACUACUCUGUUGAUAUGAUUAUUAGAUUGUAAACCAGAAUCUACCUGUGAUGAAAGUAUCACCAAUGACUGCAACAGAGGAUUGAGCAUCA
B17: chr14:15598107:15598108:+_ENSMUSG00000021733_ENSMUST00000057015|perfect_dup|motif|central (ssRNA)
RNA: GGGAGUUCUACAGUCCGACGAUCUUGCCCAGCAAACAAUGAAUAGGCAAUCCCAGUUAAUGACGCUCCAAAAAGAGACUCGGUUGCACUUAUUCUGCCUUCUGUAGCUUCUCCAAGCAGCCCUCCAAAAGUGAUUACAGGAGACAACAGAGGAUUGAGCAUCA
B18: chr21:34924512:34924513:+_ENSG00000159140_ENST00000381679|hu_hu|motif|central (ssRNA)
RNA: GGGAGUUCUACAGUCCGACGAUCAGAUGACAUCAUGGAACGUUCUGCAGCAUAGGACAUCAUCAUAGAACGUCUAGAUGCGGACAUCAGGGGUCUAGGUGCUAACCUAUAUGGCCUGGGUGCUAUUCUAUAGGACCUGGGUGCCAACAGAGGAUUGAGCAUCA
B19: chr10:12291664:12291665:+_ENSG00000151465_ENST00000378900|hu_hu|FALSE|FALSE (ssRNA)
RNA: GGGAGUUCUACAGUCCGACGAUCGUUCCAGUACGCUCAUCAGUCGUCCUCCUGCUGAUUUCUCUUCAGCUUAAGGAAGUCUAUUAGCUUGUGAGCGUCCUCCCCAGUAGAGAGGUCUACAAAGUCCUUGGGUAGCCGGUAACUCAACAGAGGAUUGAGCAUCA
B20: chr10:121586544:121586545:+_ENSG00000198825_ENST00000369080|hu_hu|motif|central (ssRNA)
RNA: GGGAGUUCUACAGUCCGACGAUCCCGACUGCCCAAUCGAGGCGCUGAGGCAAUAAUACCACAACUAGGAAGAACGUAAUCGGUUGGCCCUACACUCUCUAAUGAGUUAGCUAGCUGCCUGUCUUCAUCAGACUUAGAAUUUGUCAACAGAGGAUUGAGCAUCA
B21: chr1:168165803:168165804:+_ENSG00000143155_ENST00000367833|hu_hu|motif|central (ssRNA)
RNA: GGGAGUUCUACAGUCCGACGAUCAUUCAUUCUGAUAAGCACCCCAUCAAUUCUCAAGAAAAACCGCAACAGCAGGAAAAAGCGGGAAGGCAUUACUCUAAUCUUCACACUCAGGCUUGAAACUCCAUGAUCAUGAAGUUCAUCCAACAGAGGAUUGAGCAUCA
B22: chr7:141438946:141438947:+_ENSG00000106028_ENST00000265304|hu_mus|hu_hu_hu_mus_True|78_88 (ssRNA)
RNA: GGGAGUUCUACAGUCCGACGAUCGACGAAAUACCUGUAACACAGGUGAAACAUGGCUUCUAUUUUCUUUUCUUACAACCUAAUCUUUAGGCUUUUCCUAAAGGAAAGAAAGAAAAGAGAAAAAUGAUAAAUCAAGAAACUACACAACAGAGGAUUGAGCAUCA

The binders below were run against T1, UNK ZnF1-3 (assay: nsRBNS (natural sequence RNA bind-n-seq); RBNS binding buffer (assumed for nsRBNS): 25 mM Tris pH 7.5, 150 mM KCl, 3 mM MgCl2, 0.01% Triton X-100, 500 ug/ml BSA, 20 U/ml SUPERase-In, 4 C; UNK is unkempt and MSI1 is Musashi-1; names of the RNAs are library labels; protein concentration not given here; high values mean tight binding).

Binder	binding signal
B1	1 enrichment R
B2	1.24 enrichment R
B3	0.839 enrichment R
B4	3.07 enrichment R
B5	1.35 enrichment R
B6	1.19 enrichment R
B7	1.19 enrichment R
B8	1.17 enrichment R
B9	1.19 enrichment R
B10	0.557 enrichment R
B11	2.03 enrichment R
B12	1.08 enrichment R
B13	0.873 enrichment R
B14	1.71 enrichment R
B15	1.38 enrichment R
B16	1.33 enrichment R
B17	1.31 enrichment R
B18	0.936 enrichment R
B19	0.299 enrichment R
B20	0.982 enrichment R
B21	1.84 enrichment R
B22	0.333 enrichment R
